The source gives no read counts; variants with many changes may rest on few reads.

B1: LINE1-mini (parent)
chain: GGCAGAGCUCAACACAGCGUGGCAAAGUGGCUGUGGCUAGACUGCC

This data set covers variants of B1. Nature of the data set: self-cleavage, relative activity (ratio to wild type); higher = more cleavage; in vitro, sequencing; the parent is a self-cleaving ribozyme.
On to A14G U28C G44A, for which the self-cleavage was found to be 0.04.

Consider C13U G19U G22U A25U, for which the self-cleavage worked out at 0.14.

For A14G C42A C46G, the self-cleavage came out at 0.02.

Consider A14G G30U G40A, for which the self-cleavage came out at 0.15.

Take C13U C15A G27U: the self-cleavage was 0.02.

Turning to C13U C18A G19U G21A U28A, the self-cleavage amounted to 0.04.

On to A14U A16C G17A G40C U43C, for which the self-cleavage turned out to be 0.03.

Regarding A14U U28A U34G G36A, the self-cleavage is 0.21.

As to A14G A16C G29U G33U G36A, the self-cleavage was 0.04.

As to C13U U20G C42A, the self-cleavage turned out to be 0.02.

With A14U U20G U28G C31U, the self-cleavage was found to be 0.

Regarding C13U G21A G22A G30C G33C, the self-cleavage amounted to 0.02.

Regarding A14U G22C G27U U34C G44A, the self-cleavage was found to be 0.02.

A14C C18U G21U G22C C31A A39U C46G: the self-cleavage stood at 0.01.

On to A14G C18U G36C G40U, for which the self-cleavage came out at 0.08.

In the case of A14U A25U C46A, the self-cleavage was determined as 0.11.

On to A14C G22C G35A C42A, for which the self-cleavage worked out at 0.02.

A14U A16G U20G G33A: the self-cleavage was 0.

A14C G22U C23U: the self-cleavage turned out to be 0.06.

As for A14U C15U G17A, the self-cleavage was determined as 0.

Take A14G G17U G30U U34A: the self-cleavage amounted to 0.

Regarding C15A A16C G35C, the self-cleavage came out at 0.01.

For the variant C13U C18A C23G A24U, the self-cleavage was 0.

A14G C31G U32C A39G U43G: the self-cleavage turned out to be 0.

As for A14G C18U G19U G35A G36U G40U, the self-cleavage stood at 0.01.

On to C13U U32A G35U, for which the self-cleavage is 0.

Take C13U G21A C23U G33A G36C: the self-cleavage came out at 0.05.

Consider C13U U20A A26G G44A, for which the self-cleavage is 0.01.

For C13U C23U A24G A26U, the self-cleavage came out at 0.09.

For the variant A14G C15A C31A C42A C46G, the self-cleavage came to 0.03.

Regarding C13U C15G G21U G40A, the self-cleavage stood at 0.01.

For the variant A14G G17C G40A, the self-cleavage is 0.02.

For A14C G17U G19A G22U G27U, the self-cleavage came to 0.09.

As for A14G G22U C37A U38G G40C, the self-cleavage amounted to 0.

Consider A14U G19A G22U G29C, for which the self-cleavage turned out to be 0.27.

Consider A14G G19A U32C G33U G36U G44C, for which the self-cleavage amounted to 0.02.

Regarding C15A A25U U28C, the self-cleavage was 0.04.

Turning to A14G C18A C31U, the self-cleavage is 0.01.

As for A14U G17U C18A, the self-cleavage was determined as 0.03.

Regarding A14C G19U G29U G33A, the self-cleavage is 0.06.

As to A14G G17U G21U C23G G44A, the self-cleavage amounted to 0.03.

Take A14U G36U G44C: the self-cleavage worked out at 0.04.

Regarding C13U U32C G44U, the self-cleavage was 0.14.

Regarding C13U G19A G44C, the self-cleavage stood at 0.01.

For the variant A14C C18U G19U, the self-cleavage came to 0.05.

In the case of A14G C23G U43C, the self-cleavage was 0.1.

In the case of A14C G17U C18G G27U A41C, the self-cleavage amounted to 0.06.

Consider A14C G22U A24C G27U G44A, for which the self-cleavage amounted to 0.

Turning to C15A A24U G30U G36C, the self-cleavage came to 0.16.

Turning to C13U G17A A41C, the self-cleavage is 0.04.

Regarding A14G U34A G40C, the self-cleavage turned out to be 0.01.

Consider A14C G19C A24C U34G, for which the self-cleavage was 0.4.

In the case of C13U G27U C42A, the self-cleavage came out at 0.07.

Turning to A14C C18G G30A, the self-cleavage came to 0.14.

For the variant C15A A25U G29U, the self-cleavage was determined as 0.11.

For C13U G21U U28C C31U G35C C46G, the self-cleavage was 0.01.

As to C13U G33U G36U, the self-cleavage was found to be 0.02.

With A14G C18G A39C, the self-cleavage amounted to 0.04.

In the case of A14G G27U U38C, the self-cleavage is 0.03.

C13U C18U G19U G30U: the self-cleavage was found to be 0.03.

In the case of A14G C18U C37G A41C, the self-cleavage came to 0.02.

As for A14U A16C C23G A26C, the self-cleavage came to 0.03.

Regarding A14U C15G G22A A24C U28C G33U U34G, the self-cleavage is 0.12.

With A14U G17U G29A, the self-cleavage is 0.08.

In the case of A14C A16U G21U C46A, the self-cleavage came out at 0.08.

C13U G29U C45A: the self-cleavage amounted to 0.15.

With A14G C18A G40C C46G, the self-cleavage was determined as 0.02.

On to C13U G22U A24U, for which the self-cleavage was 0.26.

As to C13U G22A A25C C31A G35C C46U, the self-cleavage was determined as 0.07.

On to C13U C23A A26G G27U U32A G36A, for which the self-cleavage amounted to 0.17.

Regarding A14G G33U U34A C37G A39U C46G, the self-cleavage came to 0.02.

As to A14G A16U U20A, the self-cleavage came to 0.03.

For the variant C13U G40C C46G, the self-cleavage amounted to 0.19.

Take A14U A16U C31A G40A C45U: the self-cleavage came to 0.03.

As to A14C C31A G36A G40U C46U, the self-cleavage came to 0.05.

Consider A14G A39U C46A, for which the self-cleavage stood at 0.42.

Take A14C C15A A24G U28G: the self-cleavage came out at 0.01.

On to A14U C31U A41G, for which the self-cleavage was 0.01.

In the case of A14U U43C G44U, the self-cleavage was found to be 0.

For the variant C13U G17A G30A C46A, the self-cleavage turned out to be 0.06.

With A14U A24C G36U, the self-cleavage is 0.25.

Turning to A14U U38C C42G, the self-cleavage came out at 0.01.

For C13U G17U C42G, the self-cleavage is 0.09.

For A14G U32A G36A U43C, the self-cleavage worked out at 0.01.

Regarding A14U G19A U32G U38C, the self-cleavage turned out to be 0.

On to C13U G17C G21A A39U A41G U43A, for which the self-cleavage was found to be 0.09.

Consider C13U C15G U34C, for which the self-cleavage was 0.01.

Regarding C13U G27U U38A C45U, the self-cleavage amounted to 0.03.

On to A14C C15U U38A U43A, for which the self-cleavage worked out at 0.03.

For A14C A25U U32G, the self-cleavage amounted to 0.07.

In the case of A14C U28G U34G, the self-cleavage turned out to be 0.06.

In the case of C13U G17A G27C C31G C45A, the self-cleavage is 0.08.

For the variant A14G G17A G22A, the self-cleavage amounted to 0.09.

For A14C A25U C31U, the self-cleavage amounted to 0.01.

With A14G U38C C42U, the self-cleavage amounted to 0.03.

As for A14G A24U U32C, the self-cleavage worked out at 0.

On to C13U G22C A26U G44A C45U, for which the self-cleavage turned out to be 0.02.

C13U G21A G35U: the self-cleavage is 0.1.

Take C15A A16G A26U U32G: the self-cleavage amounted to 0.04.

In the case of A14G G40U C46U, the self-cleavage is 0.4.

As for C13U G36U G40C, the self-cleavage amounted to 0.02.

Consider A14C C23U G27U G44U, for which the self-cleavage came to 0.04.

Turning to A14G U20A G27A C45A C46G, the self-cleavage came out at 0.08.

In the case of A14G C15U G22U G27U A41G, the self-cleavage came out at 0.02.

Regarding C15A A24G G29U U34G, the self-cleavage turned out to be 0.02.

With A14U C31A U32A A39C C45A, the self-cleavage was determined as 0.

With A14C A26U C46A, the self-cleavage was determined as 0.04.

Take A14U G19C G27A C46G: the self-cleavage is 0.36.

For A14G G17U U43A C46U, the self-cleavage stood at 0.

C15A A16G U38A A41G C42U: the self-cleavage is 0.01.

For the variant C13U G22C U38A, the self-cleavage amounted to 0.05.

With A14C G19C U20C C23A, the self-cleavage is 0.03.

For A14C C31A G40A, the self-cleavage stood at 0.02.

Regarding A14U G30C C37A C45A, the self-cleavage was 0.01.

As to A14C C15A G17A, the self-cleavage was 0.04.

Regarding C15A A16U U20G G36C C46U, the self-cleavage came out at 0.02.

Consider A14U G22U G35U, for which the self-cleavage stood at 0.2.

As for A14G A26U U28A G33C G40A, the self-cleavage came to 0.01.

For A14U C18G G27U, the self-cleavage turned out to be 0.05.

As to A14U G22A G36A G44U, the self-cleavage amounted to 0.21.

For A14U A24C G29C C37A U38C, the self-cleavage came out at 0.04.

As to A14C C37U C46U, the self-cleavage was found to be 0.02.

As to A14C U20C G30A C42U, the self-cleavage is 0.13.

Turning to A14U C15G C18U C31U, the self-cleavage was found to be 0.03.

With A14G C15U G21U U43C C45G, the self-cleavage worked out at 0.03.

Turning to A14G G30C G33A G35A, the self-cleavage is 0.13.

Regarding C13U G21U G22U, the self-cleavage was found to be 0.59.

On to C15A A25C G40U C45G, for which the self-cleavage turned out to be 0.01.

Take A14C U20C A24U G29U G35U C46G: the self-cleavage was 0.02.

A14U A24G C46A: the self-cleavage turned out to be 0.06.

Regarding A14U A24G G35C C46U, the self-cleavage was 0.05.

In the case of A14G C15A G17U G21U, the self-cleavage came out at 0.08.

Regarding C15A A24U U32G, the self-cleavage is 0.08.

As to A14C C31U A41G, the self-cleavage came to 0.

On to A14U U20G C45A, for which the self-cleavage was determined as 0.02.

Consider A14U U32A A41U, for which the self-cleavage stood at 0.02.

On to C15A A16C C23A G33U, for which the self-cleavage worked out at 0.13.

Turning to A14C A16C A24U U43G, the self-cleavage came out at 0.26.

C13U G35U C37U: the self-cleavage was determined as 0.02.

Regarding A14G G30C C31G, the self-cleavage was determined as 0.02.

C13U U20A G35U C42A: the self-cleavage came out at 0.01.

For the variant C13U C37G G40U, the self-cleavage was found to be 0.05.

With C15A A26U G29U, the self-cleavage turned out to be 0.05.

With A14U C15G U20A, the self-cleavage was 0.04.

In the case of A14G A26U G27U U28A G29U C31A, the self-cleavage was found to be 0.16.

A14G C37U A39G: the self-cleavage is 0.

Turning to C13U G17U G19C G29A U34A G44A, the self-cleavage was determined as 0.03.

With A14U G21C C31G U38G, the self-cleavage was determined as 0.01.

Regarding A14U U20A A39G, the self-cleavage worked out at 0.02.

Take A14C U34C C46A: the self-cleavage was found to be 0.32.

Take A14U C31A G33C: the self-cleavage came out at 0.07.

For the variant A14U A26U A39C, the self-cleavage came to 0.1.

For the variant C13U C15G U43C, the self-cleavage amounted to 0.03.

For the variant A14U C18A G21C C37G, the self-cleavage amounted to 0.02.

Take A14C U20A G27A: the self-cleavage was 0.18.

As for A14C C18U G35U, the self-cleavage is 0.03.

As for A14G C18G G40A C45U, the self-cleavage amounted to 0.

With A14U A16C C31U U32C, the self-cleavage came to 0.1.

Take C13U G27U G36U: the self-cleavage is 0.01.

Turning to A14G A24C G29U C45U, the self-cleavage is 0.2.

Consider C15A A24C C45U, for which the self-cleavage is 0.1.

Consider A14U U20A G44U, for which the self-cleavage worked out at 0.02.

For the variant A14C G27A U34G, the self-cleavage worked out at 0.04.

For C13U G19U C23A G36U C37U C45U, the self-cleavage stood at 0.03.

In the case of A14U C23U G29C C31G G36U G40A, the self-cleavage came out at 0.08.

Take A14C G17U G19U: the self-cleavage was determined as 0.13.

As for C13U G35U U38G, the self-cleavage stood at 0.02.
